Measured values from the antibiotic and cytotoxicity screens of Wong et al. (2023).
Some of the results follow.

Experiments:
[1] = system: HSkMC (human skeletal muscle cells); assay: cytotoxicity call (relative viability < 0.9); conditions: 10 µM
[2] = system: HepG2; assay: cytotoxicity call (relative viability < 0.9); conditions: 10 µM
[3] = system: S. aureus RN4220; assay: growth inhibition call (relative growth <= 0.2); conditions: 50 µM

C[C@@H]1CN([C@H](C)CO)C(=O)c2cccc(NC(=O)c3nc4ccccc4s3)c2O[C@@H]1CN(C)C(=O)Nc1cccc2ccccc12
inactive: cytotoxicity call [1] | cytotoxicity call [2] | growth inhibition call [3]

C[C@@H]1CN([C@@H](C)CO)C(=O)Cc2cc(NS(=O)(=O)c3ccc(Cl)cc3)ccc2O[C@@H]1CN(C)C(=O)Nc1ccc(C(F)(F)F)cc1
inactive: cytotoxicity call [1] | cytotoxicity call [2] | growth inhibition call [3]

O=C(C[C@@H]1C=C[C@@H](NS(=O)(=O)c2ccc(F)cc2)[C@@H](CO)O1)NCCN1CCCCC1
inactive: cytotoxicity call [1] | cytotoxicity call [2] | growth inhibition call [3]

COC(=O)[C@H](Cc1ccccc1)N1CC2=C[C@@H](C3CC3)n3c(=O)n(C)c(=O)n3[C@H]2[C@@H]1[C@@H](O)CCn1cc(CCC(=O)NO)nn1
inactive: cytotoxicity call [1] | cytotoxicity call [2] | growth inhibition call [3]

COc1ccc(NC(=O)N(C)C[C@@H]2Oc3ccc(NC(=O)CCCN(C)C)cc3CC(=O)N([C@H](C)CO)C[C@H]2C)cc1
inactive: cytotoxicity call [1] | cytotoxicity call [2] | growth inhibition call [3]

COc1ccc(NC(=O)Nc2ccc3c(c2)C(=O)N([C@@H](C)CO)C[C@H](C)[C@@H](CN(C)S(=O)(=O)c2ccccc2)OCCCC[C@H](C)O3)cc1
inactive: cytotoxicity call [1] | cytotoxicity call [2] | growth inhibition call [3]

C[C@H]1CN([C@@H](C)CO)C(=O)CCCn2nncc2CO[C@@H]1CN(C)S(=O)(=O)c1cn(C)cn1
inactive: cytotoxicity call [1] | cytotoxicity call [2] | growth inhibition call [3]

O=C(C[C@@H]1CC[C@H]2[C@@H](COC[C@@H](O)CN2S(=O)(=O)c2cccc(Cl)c2)O1)NCc1ccc2c(c1)OCO2
inactive: cytotoxicity call [1] | cytotoxicity call [2] | growth inhibition call [3]

C[C@H]1CN([C@@H](C)CO)C(=O)Cc2cc(NC(=O)Cn3cnnn3)ccc2O[C@@H]1CN(C)Cc1ccc2c(c1)OCO2
inactive: cytotoxicity call [1] | cytotoxicity call [2] | growth inhibition call [3]

COc1ccc(NC(=O)Nc2ccc3c(c2)C(=O)N([C@H](C)CO)C[C@@H](C)[C@H](CN(C)S(=O)(=O)c2c(C)noc2C)OCCCC[C@@H](C)O3)cc1
inactive: cytotoxicity call [1] | cytotoxicity call [2] | growth inhibition call [3]

C[C@@H]1CCCCO[C@H](CN(C)Cc2ccc(C(F)(F)F)cc2)[C@H](C)CN([C@H](C)CO)C(=O)c2cc(NC(=O)c3ccccc3)ccc2O1
inactive: cytotoxicity call [1] | cytotoxicity call [2] | growth inhibition call [3]

C[C@H]1CN([C@@H](C)CO)C(=O)c2cccc(NS(=O)(=O)c3cccs3)c2O[C@H]1CN(C)S(=O)(=O)c1ccccc1
inactive: cytotoxicity call [1] | cytotoxicity call [2] | growth inhibition call [3]

C[C@@H]1CN([C@H](C)CO)C(=O)c2cc(NC(=O)C3CC3)ccc2O[C@H]1CN(C)S(=O)(=O)c1cccs1
inactive: cytotoxicity call [1] | cytotoxicity call [2] | growth inhibition call [3]

COc1ccc(NC(=O)N(C)C[C@@H]2Oc3ccc(NC(=O)Cn4cnnn4)cc3CC(=O)N([C@@H](C)CO)C[C@@H]2C)cc1
inactive: cytotoxicity call [1] | cytotoxicity call [2] | growth inhibition call [3]

COc1ccc(S(=O)(=O)Nc2ccc3c(c2)C(=O)N([C@@H](C)CO)C[C@H](C)[C@H](CN(C)Cc2ccc(C(=O)O)cc2)OCCCC[C@@H](C)O3)cc1
inactive: cytotoxicity call [1] | cytotoxicity call [2] | growth inhibition call [3]

CNCc1cnc(NC)nc1
inactive: cytotoxicity call [1] | cytotoxicity call [2] | growth inhibition call [3]

O=C(O)Cn1ccccc1=O
inactive: cytotoxicity call [1] | cytotoxicity call [2] | growth inhibition call [3]

COc1ccccc1S(=O)(=O)N[C@H]1CC[C@@H](CCNC(=O)C2CC2)O[C@@H]1CO
inactive: cytotoxicity call [1] | cytotoxicity call [2] | growth inhibition call [3]

COc1ccc(S(=O)(=O)N2C[C@H](O)COC[C@@H]3O[C@H](CC(=O)N[C@@H]4CCN(Cc5ccccc5)C4)CC[C@H]32)cc1
inactive: cytotoxicity call [1] | cytotoxicity call [2] | growth inhibition call [3]

C[C@@H]1CCCCO[C@H](CN(C)Cc2ccc(Cl)c(Cl)c2)[C@H](C)CN([C@H](C)CO)C(=O)c2cc(NS(=O)(=O)c3cccs3)ccc2O1
inactive: cytotoxicity call [1] | cytotoxicity call [2] | growth inhibition call [3]

C[C@@H]1CCCCO[C@H](CN(C)C(=O)C2CCCCC2)[C@H](C)CN([C@@H](C)CO)C(=O)c2cc(NC(=O)c3ccncc3)ccc2O1
inactive: cytotoxicity call [1] | cytotoxicity call [2] | growth inhibition call [3]

O=C(C[C@@H]1C=C[C@H](NC(=O)C2CCC2)[C@@H](CO)O1)NCCCN1CCOCC1
inactive: cytotoxicity call [1] | cytotoxicity call [2] | growth inhibition call [3]

CCCC(=O)Nc1ccc2c(c1)OC[C@H](C)N(Cc1ccc(-c3ccccn3)cc1)C[C@H](C)[C@H](OC)CN(C)C2=O
inactive: cytotoxicity call [1] | cytotoxicity call [2] | growth inhibition call [3]
